# Experimental data taken from the supplement of paper PMC12217912.
# The list shows a part of the results. Sequences were assembled here from the parent chain. Values near 0.05 are background.
# B1: TEV protease; numbered along this chain (parent)
# chain: MGESLFKGPRDYNPISSSICHLTNESDGHTTSLYGIGFGPFIITNKHLFRRNNGTLVVQSLHGVFKVKDTTTLQQHLVDGRDMIIIRMPKDFPPFPQKLKFREPQREERICLVTTNFQTKSMSSMVSDTSCTFPSGDGIFWKHWIQTKDGQCGSPLVSTRDGFIVGIHSASNFTNTNNYFTSVPKNFMELLTNQEAQQWVSGWRLNADSVLWGGHKVFMVKPEEPFQPVKEATQL
# Variants of: B1
# Experiment: raw area under fraction-flipped curve 0-4 h after induction (AUC4h, not background-subtracted), DNA-recorder readout of cleavage of the substrate (dimensionless); higher = more cleavage of the substrate by the protease variant
# Details: temperature: 34 °C; time window: 0-4 h after rhamnose induction
# Protocol: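 In vivo DNA recorder in E. coli TOP10(DE3) ΔrhaA at 34 °C. Each TEVp single-site mutant (parent TEVp 0) is paired with a single-site variant of the 7-mer TEVs (canonical ENLYFQ|S). The substrate sits between flexible linkers in a Bxb1-sfGFP-TEVs-SsrA fusion, so cleavage stabilises Bxb1 and speeds flipping of a recombination array, read by NGS. The value is the raw area under the fraction-flipped curve over 0-4 h after rhamnose induction (AUC4h), with ≥20 reads per time point. It is not background-subtracted; inactive controls average about 0.047.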
# 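Note: Bxb1 expression induced with 0.2% (w/v) L-rhamnose at OD600 near 0.5, cultures sampled hourly, flipped fraction per protease–substrate barcode pair counted by paired-end Illumina sequencing.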
Variant,area with substrate EALYFQS,area with substrate ECLYFQS,area with substrate EDLYFQS,area with substrate EELYFQS,area with substrate EFLYFQS,area with substrate EILYFQS,area with substrate EKLYFQS,area with substrate ELLYFQS,area with substrate EMLYFQS,area with substrate EQLYFQS,area with substrate ERLYFQS,area with substrate ESLYFQS,area with substrate ETLYFQS,area with substrate EVLYFQS,area with substrate EWLYFQS,area with substrate EYLYFQS,area with substrate EHLYFQS,area with substrate EPLYFQS,area with substrate EGLYFQS
MGESLFKGPRDYNPISSSICHLTNESDGHTTSLYGIGFGPFIITNKHLFRRNNGTLVVQSLHGVFKVKDTTTLQQHLVDGRDMIIIRMPKDFPPFPQKLKFREPQREERICLVTTNFQTKSMSSMVSDTSCTFPSGDGIFWKHWIQTKDGQCGSPLVSTRDGFIVGIHSASNFTNTANYFTSVPKNFMELLTNQEAQQWVSGWRLNADSVLWGGHKVFMVKPEEPFQPVKEATQL [N177A],0.116,0.0978,0.13,0.113,0.108,0.0784,0.101,0.0817,0.112,0.161,0.0881,0.104,0.0994,0.0929,0.105,0.082,,,
MGESLFKGPRDYNPISSSICHLTNESDGHTTSLYGIGFGPFIITNKHLFRRNNGTLVVQSLHGVFKVKDTTTLQQHLVDGRDMIIIRMPKDFPPFPQKLKFREPQREERICLVTTNFQTKSMSSMVSDTSCTFPSGDGIFWKHWIQTKDGQCGSPLVSTRDGFIVGIHSASNFTNTNNYFTSVPTNFMELLTNQEAQQWVSGWRLNADSVLWGGHKVFMVKPEEPFQPVKEATQL [K185T],0.11,0.0842,0.138,0.131,,0.0948,0.106,,0.118,0.106,,0.0945,0.108,0.0909,,0.104,0.0904,0.106,
MGESLFKGPRLYNPISSSICHLTNESDGHTTSLYGIGFGPFIITNKHLFRRNNGTLVVQSLHGVFKVKDTTTLQQHLVDGRDMIIIRMPKDFPPFPQKLKFREPQREERICLVTTNFQTKSMSSMVSDTSCTFPSGDGIFWKHWIQTKDGQCGSPLVSTRDGFIVGIHSASNFTNTNNYFTSVPKNFMELLTNQEAQQWVSGWRLNADSVLWGGHKVFMVKPEEPFQPVKEATQL [D11L],0.0922,0.0782,0.0917,0.099,,0.0824,0.0804,0.0712,0.0765,0.0865,0.075,0.0822,,0.0814,0.074,0.0739,0.0839,0.104,0.0895
MGESLFKGPRDYNPISSSICHLTNESDGHTTSLYGEGFGPFIITNKHLFRRNNGTLVVQSLHGVFKVKDTTTLQQHLVDGRDMIIIRMPKDFPPFPQKLKFREPQREERICLVTTNFQTKSMSSMVSDTSCTFPSGDGIFWKHWIQTKDGQCGSPLVSTRDGFIVGIHSASNFTNTNNYFTSVPKNFMELLTNQEAQQWVSGWRLNADSVLWGGHKVFMVKPEEPFQPVKEATQL [I36E],0.0316,0.0544,,0.0336,0.0401,0.0352,0.0499,,0.0397,0.0519,0.0495,0.0502,,0.0407,0.042,0.0557,0.036,0.0472,0.048
MGESLFKGPRDYNPISSSICHLTNESDGHTTSLYGIGFGPFIITNKHLFRRNNGTLVVQSLHGVFKVKDTTTLQQHLVDGRDMIIIRMPKDFPPFPQKLKFREPQREERICLVTTNFQTKSMSSMVSDTSCTFPSGDGGFWKHWIQTKDGQCGSPLVSTRDGFIVGIHSASNFTNTNNYFTSVPKNFMELLTNQEAQQWVSGWRLNADSVLWGGHKVFMVKPEEPFQPVKEATQL [I139G],0.12,0.112,,0.12,,0.137,0.104,0.149,,0.157,0.103,0.115,,0.0988,0.121,,0.13,0.147,0.0756
MGESLFKGPRDYNPISSSICHLINESDGHTTSLYGIGFGPFIITNKHLFRRNNGTLVVQSLHGVFKVKDTTTLQQHLVDGRDMIIIRMPKDFPPFPQKLKFREPQREERICLVTTNFQTKSMSSMVSDTSCTFPSGDGIFWKHWIQTKDGQCGSPLVSTRDGFIVGIHSASNFTNTNNYFTSVPKNFMELLTNQEAQQWVSGWRLNADSVLWGGHKVFMVKPEEPFQPVKEATQL [T23I],0.116,0.0983,0.103,,,0.0859,0.128,,0.138,0.152,0.105,0.102,0.167,0.115,0.104,,,,0.13
MGESLFKGPRDYNPCSSSICHLTNESDGHTTSLYGIGFGPFIITNKHLFRRNNGTLVVQSLHGVFKVKDTTTLQQHLVDGRDMIIIRMPKDFPPFPQKLKFREPQREERICLVTTNFQTKSMSSMVSDTSCTFPSGDGIFWKHWIQTKDGQCGSPLVSTRDGFIVGIHSASNFTNTNNYFTSVPKNFMELLTNQEAQQWVSGWRLNADSVLWGGHKVFMVKPEEPFQPVKEATQL [I15C],0.118,0.0712,0.16,0.123,,0.1,0.0987,,0.11,0.122,0.0784,0.095,,0.0353,,0.119,0.0913,0.123,0.149
MGESLFKGPRDYNPISSSICHLTNESDGHTTSLYGIGFGPFIITNKHLFRRNNGTLVVQSLHGVFKVKDTTTLQCHLVDGRDMIIIRMPKDFPPFPQKLKFREPQREERICLVTTNFQTKSMSSMVSDTSCTFPSGDGIFWKHWIQTKDGQCGSPLVSTRDGFIVGIHSASNFTNTNNYFTSVPKNFMELLTNQEAQQWVSGWRLNADSVLWGGHKVFMVKPEEPFQPVKEATQL [Q75C],0.103,0.0905,,,,0.0886,0.0705,0.0876,0.12,0.104,0.0997,0.0965,,0.0962,0.0931,0.0949,,0.144,0.0933
MGESLFKGPRDYNPISSSICHLTNESDGHTTSLYGIGFGPFIITNKHLFRRNNGTLVVQSLHGVFKVKDTTTLQQHLVDGRDMIIIRMPKDFPPFPQKLKFREPQREERICLVTTNFQTKSMSSMVSDTSCTFPSGDGIFWKHWIQEKDGQCGSPLVSTRDGFIVGIHSASNFTNTNNYFTSVPKNFMELLTNQEAQQWVSGWRLNADSVLWGGHKVFMVKPEEPFQPVKEATQL [T147E],0.0606,0.0599,,0.0499,,0.0595,,0.0626,0.0668,0.0538,0.0609,0.0534,,0.069,0.0625,0.0481,0.059,0.0592,0.0677
